The values that follow come from paper PMC6919601, “Identification of Plasmodium dipeptidyl aminopeptidase allosteric inhibitors by high throughput screening” (PLoS ONE, 2019).

Screen size: about 110,000 compounds; about 230 (0.21%) showed an effect of 50% or more. The list shows a part of the results.
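Also: 30 min substrate incubation versus DMSO and 10 µM JCP410 controls.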

Chain of DPAP1 (Q8IIJ9 whole entry, looked up): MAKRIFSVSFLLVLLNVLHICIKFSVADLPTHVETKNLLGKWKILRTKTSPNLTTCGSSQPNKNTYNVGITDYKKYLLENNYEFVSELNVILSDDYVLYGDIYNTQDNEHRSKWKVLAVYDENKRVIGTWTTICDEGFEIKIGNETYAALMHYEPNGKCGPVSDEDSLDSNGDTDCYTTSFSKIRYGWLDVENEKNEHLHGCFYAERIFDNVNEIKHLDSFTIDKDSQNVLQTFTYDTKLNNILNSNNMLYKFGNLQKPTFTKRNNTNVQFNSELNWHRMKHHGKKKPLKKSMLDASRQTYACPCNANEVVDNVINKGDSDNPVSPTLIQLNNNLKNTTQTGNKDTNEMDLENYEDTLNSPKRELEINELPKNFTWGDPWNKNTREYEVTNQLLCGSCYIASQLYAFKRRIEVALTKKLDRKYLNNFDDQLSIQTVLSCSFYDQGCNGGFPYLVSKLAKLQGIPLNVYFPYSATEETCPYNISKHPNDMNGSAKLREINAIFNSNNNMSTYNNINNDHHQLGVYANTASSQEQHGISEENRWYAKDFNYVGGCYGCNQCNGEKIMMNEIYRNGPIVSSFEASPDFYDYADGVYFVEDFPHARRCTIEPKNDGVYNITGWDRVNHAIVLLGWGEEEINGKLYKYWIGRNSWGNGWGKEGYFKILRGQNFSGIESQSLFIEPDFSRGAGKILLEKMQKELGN

This experiment has as its target DPAP1 (Plasmodium falciparum, UniProt Q8IIJ9). As to the kind of experiment: primary screen, percent inhibition; read by cleavage of a fluorogenic dipeptide substrate; higher = more effect of the substance. Also noted: species or system P. falciparum D10 trophozoite lysates; single well.
As for `CCOc1cc2c(cc1OCC)C(c1ccc(O)c(OC)c1)NCC2` (stereo not shown), the “% Inhibition @ 10 uM” value amounted to 0.83%.

Regarding `CCOc1ccc(-n2c(C)cc(/C=C3\C(=O)N(CC4CCCO4)C(C)=C3C(=O)OC)c2C)cc1` (stereo not shown), the “% Inhibition @ 10 uM” value stood at 3.47%.

Consider `Cc1c(C(=O)Nc2ccncc2)sc2nc(-c3ccccc3)cn12`, for which the “% Inhibition @ 10 uM” value is reported as 1.35%. Then `C=CCOc1ccccc1CNC(C)(C)CO`, with 0.907%; and `COc1cc(/C=C2\C(=O)ON=C2c2ccccc2)cc(Br)c1O`, with 3.54%. For the molecule `O=C(O)CC/N=C(\NS(=O)(=O)c1ccccc1)c1ccccc1`, the “% Inhibition @ 10 uM” value was -7.8%. In the case of `O=C(NCc1cccs1)c1nn2c(C(F)(F)F)cc(-c3ccccc3)nc2c1Cl` it was -2.2%; in that of `CCOC(=O)N1CCN(C(=O)CCc2nc3ccccc3[nH]2)CC1`, 0.166%.

Regarding `CC1CCN(c2nc(Cl)nc(NC(C)(C)CO)n2)CC1`, the “% Inhibition @ 10 uM” value is -1.85%. In the case of `Cc1ccc(NC(=O)c2ccc(C)c(C)c2)c(C(=O)O)c1` it was 3.04%; in that of `CCOc1ccc(CCNC(=O)c2cc(S(=O)(=O)N3CCOCC3)cn2C)cc1OCC`, -5.99%.

As to `COc1ccc(-c2cc(-c3cc(Cl)ccc3O)[nH]n2)cc1`, the “% Inhibition @ 10 uM” value is -0.171%.

For `COc1ccc(N(CC(=O)Nc2ccccc2Cl)S(C)(=O)=O)cc1`, the “% Inhibition @ 10 uM” value was -15.1%. In the case of `COc1nc(C)nc(NC(=O)NC(=O)c2c(Cl)nc(C)c(Cl)c2C)n1` it was 1.62%; in that of `COc1ccc(-c2nc(-c3ccc(Cl)cc3)no2)cc1`, -0.267%; in that of `CCC(C(=O)NCCOC)n1cc(C=O)c2ccccc21` (stereo not shown), -8.34%. In the case of `COc1ccc(-c2nc3ccccc3o2)cc1` it was -0.414%. With `O=C(CCc1ccccc1)Nc1cc(Cl)ccc1Cl`, the “% Inhibition @ 10 uM” value was -3.03%.

With `COc1ccc(C2C3=C(O)CC(C)(C)CC3=Nc3nc(SC)nn32)c(OC)c1OC` (stereo not shown), the “% Inhibition @ 10 uM” value was determined as 0.0842%.

Regarding `COc1cc(NC(=O)c2cnn3c2NC(c2ccco2)CC3C(F)(F)F)c(OC)cc1Cl` (stereo not shown), the “% Inhibition @ 10 uM” value turned out to be 4.67%. Then `NC(=O)c1c(NC(=O)c2ccc(Br)cc2)sc2c1CCCCC2`, with 22.6%. In the case of `COc1ccc(CC(=O)Nc2c3c(nc4ccccc24)N(Cc2ccccc2)CC3)cc1OC` it was -2.87%. In the case of `CC(C)c1ccc(-c2c(NCc3ccccc3Cl)c(=O)c2=O)cc1`, the “% Inhibition @ 10 uM” value is recorded as -7.52%.

On to `COC(=O)C1=CN(C(C)C)C=C(C(=O)OC)C1c1cc(OC)c(OC)cc1OC`, for which the “% Inhibition @ 10 uM” value was 1.86%. On to `Cc1ccc(-n2nnc3c(=O)n(CC(=O)NCc4ccc5c(c4)OCO5)cnc32)cc1`, for which the “% Inhibition @ 10 uM” value is given as 2.85%. In the case of `Cc1ccc(-c2nc(-c3cccnc3)no2)cc1` it was 6.86%; in that of `O=C(c1ccc2nc(N3CCCCC3)sc2c1)N1CCc2ccccc2C1`, -0.637%. On to `O=C(CSCCc1ccccn1)Nc1cccnc1Cl`, for which the “% Inhibition @ 10 uM” value is on record as -3.21%.
